Measurements from PubChem BioAssay AID1508642 (National Center for Advancing Translational Sciences (NCATS), 2021).
The campaign covered roughly 43,000 compounds. About 200 (0.47%) were called active. The shares of active, inactive and inconclusive entries below differ from those in the screen. Calls follow the shape of the dose curve; as a rule, active = well fitted cell-killing curve with a large enough effect; inconclusive = small, poorly fitted or top-dose-only effect, or effect the other way; inactive = flat fitted curve, though single readings scatter. Potencies beside an inconclusive call are fits to weak or partial responses and may not hold up.

Assay: Cell viability qHTS assay in S16 Pmp22-F2sN cells; also: nearly all actives have a fitted effect of over 65% in size
Conditions: S16 Pmp22-F2sN Schwann cells viability, CellTiter-Glo, 24 h; series mostly up to 57.5 µM
Method in brief: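 Used to flag compounds lowering reporter output through toxicity, this quantitative HTS measures ATP-based CellTiter-Glo luminescence in S16 Pmp22-F2sN Schwann cells after 24 h compound exposure at 37C.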
Potency is read from the fitted curve at half-maximal effect; tags tell the direction and shape of the fitted curve.

Row | Structure (SMILES) | Potency
1 | CCc1ccc(-c2nc(CN3CCCC(C(=O)N4CCN(c5cc(Cl)ccc5C)CC4)C3)c(C)o2)cc1 (stereo not drawn) | inconclusive: 31.6 µM [cytotoxic, single point]
2 | COc1ccc(Cl)cc1NC(=O)CN(C)S(=O)(=O)c1ccc2c(c1)CCCN2C(C)=O | inconclusive: 25.1 µM [cytotoxic, partial curve, poor fit]
3 | CC(CNC(=O)Cn1ccc2cc(S(=O)(=O)N3CCCCCC3)ccc21)c1ccccc1 (stereo not drawn) | inconclusive: 25.1 µM [cytotoxic, single point]
4 | Cc1cccc(-n2c(=O)c3c(c4cc(C)ccc4n3C)n(CC(=O)NCCC3=CCCCC3)c2=O)c1 | inactive
5 | COc1ccc(-c2onc(C)c2C)cc1S(=O)(=O)NCC1CCN(Cc2ccccc2F)CC1 | inconclusive: 35.5 µM [cytotoxic, single point]
6 | Cc1ccc(NC(=O)C2CCCN2S(=O)(=O)c2ccc3c(c2)CCCC(=O)N3)cc1C (stereo not drawn) | inconclusive: 39.8 µM [cytotoxic, single point]
7 | CCC(C(=O)Nc1ccccc1C(=O)OC)n1nc(C)c2c(C)n(-c3ccc(C)cc3)nc2c1=O (stereo not drawn) | inconclusive: 31.6 µM [cytotoxic, single point]
8 | CCC(=O)N1CCc2cc(CNC(=O)C(CC)c3ccccc3)ccc21 (stereo not drawn) | inconclusive: 0.0178 µM [cytotoxic, full curve, poor fit]
9 | CCOc1ccc(NC(=O)N2CCC(CN3CCc4ccccc4C3)CC2)cc1 | inconclusive: 8.91 µM [rising, partial curve, poor fit]
10 | Cc1ccc(Nc2c(-c3cc(Br)ccc3F)nc3cc(C)ccn23)cc1 | inconclusive: 8.91 µM [rising, partial curve, poor fit]
11 | O=C(Nc1ccc2nc(SCCOc3ccccc3Cl)sc2c1)c1cccs1 | inactive
12 | COc1ccc(Cl)cc1NC(=O)CSc1c2c(nc3ccccc13)CCC2 | inactive
13 | Cc1cccc(NC(=O)c2c(NC(=O)c3ccccc3)sc3c2CCCC3)c1 | inactive
14 | COc1ccccc1NC(=O)CN1C(=O)CC(c2ccc(C)c(C)c2)=Nc2ccccc21 | inconclusive: 39.8 µM [cytotoxic, single point]
15 | Cc1cccc(Cn2c(SCc3ccc(C(=O)N4CCC(C)CC4)cc3)nc3ccncc32)c1 | inconclusive: 31.6 µM [cytotoxic, single point]
16 | CC(C)Oc1ccc(CNC(=O)Nc2ccc3c(c2)N(C)C(=O)c2ccccc2S3)cc1 | inconclusive: 22.4 µM [cytotoxic, single point]
17 | Cc1ccc(CSc2ccc3nnc(CCNS(=O)(=O)c4ccc(C)cc4)n3n2)cc1 | inconclusive: 20 µM [cytotoxic, single point]
18 | COc1ccc(Nc2c(-c3ccc(C)o3)nc3ccc(Cl)cn23)cc1 | inconclusive: 10 µM [cytotoxic, partial curve, poor fit]
19 | Cc1ccc(NC(=O)c2cc(S(=O)(=O)N3CCCc4ccccc43)ccc2F)cc1F | inconclusive: 31.6 µM [cytotoxic, partial curve, poor fit]

Row | Structure (SMILES) | Potency
20 | Cc1ccc(OCc2nc(-c3ccc(C(=O)N4CCN(c5cc(Cl)ccc5C)CC4)cc3)oc2C)cc1 | inactive
21 | CCC(C)n1c(SCc2ccc(C(C)(C)C)cc2)nc2ccsc2c1=O (stereo not drawn) | inconclusive: 28.2 µM [cytotoxic, partial curve, poor fit]
22 | CCC1CCCCN1CCCNC(=O)c1ccc2c(c1)N(Cc1ccc(Cl)cc1)C(=O)c1ccccc1S2(=O)=O (stereo not drawn) | inconclusive: 39.8 µM [cytotoxic, single point]
23 | CCOC(=O)c1cnc2ccc(C)cc2c1NCCc1ccc(OC)c(OC)c1 | inactive
24 | CCC(=O)N1CCCc2cc(S(=O)(=O)N3CCC(C(=O)Nc4ccccc4CC)CC3)ccc21 | inconclusive: 5.62 µM [cytotoxic, partial curve, poor fit]
25 | Cc1ccc(Cl)cc1N1CCN(CCCNC(=O)c2nnc(Cc3cccc(Cl)c3)o2)CC1 | inconclusive: 39.8 µM [cytotoxic, single point]
26 | Cc1ccc(C(=O)Nc2nc(-c3nnn(-c4cccc(Cl)c4C)c3C)ns2)cc1C | inconclusive: 14.1 µM [cytotoxic, partial curve]
27 | O=C(NCCCN1CCN(c2ccc(F)cc2)CC1)c1sc2ncccc2c1-n1cccc1 | inconclusive: 22.4 µM [cytotoxic, single point]
28 | Cc1ccc2c(c1)C(=O)C(=O)N2Cc1ccc(OC(C)C)cc1 | inconclusive: 0.794 µM [cytotoxic, full curve, poor fit]
29 | COc1cc(CNc2ccc3c(c2)ncn3C(C)C)cc(OC)c1OC | inconclusive: 28.2 µM [cytotoxic, single point]
30 | COc1cccc(Nc2sc(C(=O)c3ccc(F)cc3)c(N)c2C(=O)NCc2ccc(C)cc2)c1 | inconclusive: 39.8 µM [cytotoxic, single point]
31 | COc1cccc(C(=O)Nc2ccc(-c3nc4ccccc4s3)cc2Cl)c1 | inconclusive: 10 µM [rising, partial curve, poor fit]
32 | COc1ccc(C(=O)/C=C/c2cn(CC(O)CN(CC(C)C)CC(C)C)c3ccccc23)cc1 (stereo not drawn) | inactive
33 | CCCC(=O)N(c1ccc2oc(C)c(C(C)=O)c2c1)S(=O)(=O)c1ccc(C)cc1 | inconclusive: 39.8 µM [cytotoxic, single point]
34 | O=S(=O)(c1ccccc1F)N1CCC(Oc2ccc(-n3cnnn3)cc2)CC1 | inconclusive: 39.8 µM [cytotoxic, single point]
35 | Cc1ccc(-n2ncc3c(N4CCN(CCO)CC4)ncnc32)cc1Cl | inconclusive: 39.8 µM [cytotoxic, single point]
36 | Cc1cc(Br)ccc1NC(=O)c1cn(C2CCCC2)c(=O)c2c1c1ccccc1n2C | inconclusive: 39.8 µM [cytotoxic, partial curve, poor fit]
37 | Cc1ccc(C)c(Nc2nn3c(=O)c4ccc(C(=O)NCCc5ccccc5)cc4nc3s2)c1 | inactive
38 | COc1ccc(C(=O)Nc2nc3c(s2)CCc2cc(OC)ccc2-3)cc1 | inconclusive: 20 µM [rising, partial curve, poor fit]
